Experimental data reported in the supplement of paper PMC7125110.
± gives the standard error. Variants at the background level are over-represented here.

B1: glmS ribozyme (parent)
chain: AUAAAAGCGCCAGAACUACAGAAAUGUAGUUGACGAGGAGGAGGUUUAUCGAAUUUUCGGCGGAUGCCUCCAAA

Variants of: B1
Test: self-cleavage kobs at 160 uM GlcN6P; higher = faster cleavage; RNA array
Details: with glucosamine-6-phosphate
How it was run: (§1)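 A hybridised Cy3 probe tracked barcoded ribozyme variants, transcribed in situ by E. coli RNA polymerase on sequenced MiSeq chips, at 37 °C. The variants received 40 μM to 10 mM glucosamine-6-phosphate in HEPES/KCl/Mg(OAc)2 buffer. kobs came from decay fits and kcat and KM from weighted Michaelis–Menten fits.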

**Q.** With AUAAAAGCGCCAGAACUACAGAAAUGUAGUUGACGAGGAGGAGGUUUAUCGAAUUUUCGGCGGCUGCCCCCAAA as the variant, how does the “self-cleavage kobs at 160 uM GlcN6P” value read?
**A.** The value was under 1e-05 s⁻¹.

Variants of: B1
Test: self-cleavage kobs at 2500 uM GlcN6P; higher = faster cleavage; RNA array
Details: with glucosamine-6-phosphate
How it was run: as §1

**Q.** For AUAAACGCGCCAGGACUACAGAAAUGUAGUUUACGAGGAGGCGGUUUAUCGAAUUUUCGGCGGAUGCCUCCAAA, which “self-cleavage kobs at 2500 uM GlcN6P” value is on record?
**A.** Its value is under 1e-05 s⁻¹.

**Q.** With AUAAACGCGCCAGAGCUACAGAAAUGUAGUUUACUAGGAGGAGGGUUAUCGAAUUUUCGGCGGAUGACUCCAAA as the variant, how does the “self-cleavage kobs at 2500 uM GlcN6P” value read?
**A.** The value was under 1e-05 s⁻¹.

**Q.** For AUAAACGCGCUAGAACUACAGAAAUGUAGUUGACGAGGAGGAGGUUUAUCGAAUUUUCGGCUGAUGCCUCCAAA, which “self-cleavage kobs at 2500 uM GlcN6P” value is on record?
**A.** Its value is under 1e-05 s⁻¹.

**Q.** For AUAAACGCGCCAGAACUACAGAAAUGUAGUUGACGAGGAGGAGGUUUAUCGAAUUUUCGGUUGAUGCCUCCAAA, which “self-cleavage kobs at 2500 uM GlcN6P” value is on record?
**A.** The value was under 1e-05 s⁻¹.

**Q.** How did the “self-cleavage kobs at 2500 uM GlcN6P” value turn out when AUAAACGCGCCAGAACUACAGAAAUGUAGUUGACGAGGAGGAGGUUUAUCGAAUUUUCGGCGGAUGCUUCCAAA was run?
**A.** The value was 3.96e-05 ± 9.1e-06 s⁻¹.

**Q.** For AUAAACGCGCCAGAACUACAGAAAUGUAGUUGACGAGAACGAGGUUUAUCGAAUUUUCGGCCGACGCCUCCAAA, which “self-cleavage kobs at 2500 uM GlcN6P” value is on record?
**A.** The value was under 1e-05 s⁻¹.

**Q.** How did the “self-cleavage kobs at 2500 uM GlcN6P” value turn out when AUAAACGCGCCAGAACUACAGAAAUGUAGUUGACGAGGAGGAGGUAUAUCGAAUUUUCGGCGGAUGCCUCUAAA was run?
**A.** The value was under 1e-05 s⁻¹.

**Q.** Which “self-cleavage kobs at 2500 uM GlcN6P” value does the source give for AUAAAGGAGCCAGAACUACAGAAAUGUAGUCGACGAGGAGGAGGUUUAUCGAAUUUUCGGCCGAUGCCUCCAAA here?
**A.** Its value is under 1e-05 s⁻¹.

**Q.** For AUAAAGGCGACAGAACUACAGAAAUGUAGUUGACAGGGAGGAAGUUUAUCGAAUUUUCGGCGUAUGCCUCCAAA, which “self-cleavage kobs at 2500 uM GlcN6P” value is on record?
**A.** Its value is under 1e-05 s⁻¹.

**Q.** AUAAAGGCGCCAGAACUACAGAAAUGUAGUUGAAUAGGCGGAGGUUUUUCGAAUAUUGGGCGGAUGCCUCCAAA was tested. Which “self-cleavage kobs at 2500 uM GlcN6P” value did it give?
**A.** The value was under 1e-05 s⁻¹.

**Q.** With AUAAAGGCGCCAGAACUACAGAAAUGUAGUUGACGAGUAGGAGGUUUAUCGAUUUUUCGGCGGAUGCCUCCAAA as the variant, how does the “self-cleavage kobs at 2500 uM GlcN6P” value read?
**A.** The value was under 1e-05 s⁻¹.

**Q.** With AUAAAGGCGCCAGAACUACAGAAAUGUAGUUGACGAGGAGUAGGUUUAUCGAAUUUUCGUCGGAUGCCUCCAAA as the variant, how does the “self-cleavage kobs at 2500 uM GlcN6P” value read?
**A.** Its value is under 1e-05 s⁻¹.

**Q.** For AUAAAGGCGCCAGAACUACAGAAAUGUAGUUGACGAGGAGGAGGUUGGUCGAAUUGUCGGCGGAUGCCUCCAAA, which “self-cleavage kobs at 2500 uM GlcN6P” value is on record?
**A.** The value was under 1e-05 s⁻¹.

**Q.** For AUAAAUGGGCCAGAACUACAGAAAUGUAGUUGACGAGGACGAGGUUUAUCGAAUUUUCGGCGGAUGCCUCCAAA, which “self-cleavage kobs at 2500 uM GlcN6P” value is on record?
**A.** The value was under 1e-05 s⁻¹.

**Q.** AUAAAUGUGCCAGGACUACAGAAAUGUAGUUGACGAGGAGGAGGUUUAUCGAAUUUUCGGCUGAUGCCUCCAAA was tested. Which “self-cleavage kobs at 2500 uM GlcN6P” value did it give?
**A.** The value was under 1e-05 s⁻¹.

**Q.** How did the “self-cleavage kobs at 2500 uM GlcN6P” value turn out when AUAAAUGCGCCAGAACUACAGAAAUGUAGUUGACGAGGAGGAGGUUUAUCGAAUUUUAGGCGGAUGACUCCAAA was run?
**A.** Its value is under 1e-05 s⁻¹.

**Q.** For AUAAAUGCGCCAGAACUACAGAAAUGUAGUUGACGAUGACGAGGUUAAUUGAAUUUUCGGCGGAUGCCUCCAAA, which “self-cleavage kobs at 2500 uM GlcN6P” value is on record?
**A.** Its value is under 1e-05 s⁻¹.

**Q.** Which “self-cleavage kobs at 2500 uM GlcN6P” value does the source give for AUAAAUGCGCCAGAACUACAGAAAUGUAGUUGACGAGUAGGAGGUUCAUCGAAUUUUCGGCGGAUGCCUCCAAA here?
**A.** Its value is under 1e-05 s⁻¹.

**Q.** AUAAAUGCGCCAGAACUACAGAAAUGUAGUUGACGAGGAGGAGGGUUAUCGAAUUUUCGGCGAAUGCCUCCAAA was tested. Which “self-cleavage kobs at 2500 uM GlcN6P” value did it give?
**A.** Its value is under 1e-05 s⁻¹.

**Q.** For AUAAAAACGCCAGAUCUACAGAAAUGUAGUUGACGAGGAGGAGGUGUAUCGAAUUUUCGGCGGAUGCCUCCAAA, which “self-cleavage kobs at 2500 uM GlcN6P” value is on record?
**A.** Its value is under 1e-05 s⁻¹.

**Q.** How did the “self-cleavage kobs at 2500 uM GlcN6P” value turn out when AUAAAAACGCCAGAAUUACAGAAAUGUAAUCGACGAGGAGGAGGUUUAUCGAAUUUUCGACUGAUGCCCCCAAA was run?
**A.** The value was under 1e-05 s⁻¹.

**Q.** With AUAAAAACACCAGGACUACAGAAAUGUAGUUGACGUGGAGGAGGUUUAUCGAAUUUUCGGCGGAUGCCUCCAAA as the variant, how does the “self-cleavage kobs at 2500 uM GlcN6P” value read?
**A.** Its value is under 1e-05 s⁻¹.

**Q.** For AUAAAAACGCCAAAAGUACAGAAAUGUAGUUGACGAGGAGGAGGUUUAUCGAAUUUUCGGCGGAUGCCUCCAAA, which “self-cleavage kobs at 2500 uM GlcN6P” value is on record?
**A.** Its value is under 1e-05 s⁻¹.

**Q.** With AUAAAAACGCCAGAACUACAGAAAUGUAGUUGACGAGGAGGAGGUUUAUCGAAUUGUCGGCGGACGCCUCCAAA as the variant, how does the “self-cleavage kobs at 2500 uM GlcN6P” value read?
**A.** The value was under 1e-05 s⁻¹.

**Q.** Which “self-cleavage kobs at 2500 uM GlcN6P” value does the source give for AUAAAACCGCCCGUACUACAGAAAUGUAGUUGACGAGGAGGAGGUUUAUCGAAUUUUCGGCGGAUGCCUCCAAA here?
**A.** The value was under 1e-05 s⁻¹.

**Q.** How did the “self-cleavage kobs at 2500 uM GlcN6P” value turn out when AUAAAACCGCCGGAACUACAGAAAUGUAGUUGACUAGGAGGAGGUAUAUCGAAUUUUCGGCGGAUGCCUCCAAA was run?
**A.** The value was under 1e-05 s⁻¹.

**Q.** AUAAAACCGCCAGCACUACAGAAAUGUAGUUGACCAGGAGGAGGUUUAUCGAAUUUGCGGCGGAUGCCUCCAAA was tested. Which “self-cleavage kobs at 2500 uM GlcN6P” value did it give?
**A.** The value was under 1e-05 s⁻¹.

**Q.** AUAAAACCGCCAGUACUACAGAAAUGUAGUUUACGGGGAGGACGUUUAUCGAAUUUUCGGCGGAUGCCUCCAAA was tested. Which “self-cleavage kobs at 2500 uM GlcN6P” value did it give?
**A.** The value was under 1e-05 s⁻¹.

**Q.** How did the “self-cleavage kobs at 2500 uM GlcN6P” value turn out when AUAAAACCGCCAGAUCUACAGAAAUGUAGUUGACGAGGAGGAGCUUUAUCGAAUUAUCGGCGGAUGCCUCAAAA was run?
**A.** The value was under 1e-05 s⁻¹.

**Q.** Which “self-cleavage kobs at 2500 uM GlcN6P” value does the source give for AUAAAACCGCCAGAUCUACAGAAAUGUAGUUGACGAGGAGGAGGUUUAUCGAAUUUUCGGCGCAUGCCUCCAAA here?
**A.** Its value is under 1e-05 s⁻¹.

**Q.** How did the “self-cleavage kobs at 2500 uM GlcN6P” value turn out when AUAAAACCGCCAGAACUACAGAAAUGUAGUUGACGACGAUGAGGUUUAUCGAAUUUUCGGCGGAUGCCUCCAAA was run?
**A.** Its value is under 1e-05 s⁻¹.

**Q.** AUAAAACCGCCAGAACUACAGAAAUGUAGUUGACGAGGAGGAGGUUUAUCGAAUUUUCGGCCGGUGCCUCCAAA was tested. Which “self-cleavage kobs at 2500 uM GlcN6P” value did it give?
**A.** The value was under 1e-05 s⁻¹.

**Q.** Which “self-cleavage kobs at 2500 uM GlcN6P” value does the source give for AUAAAAUCGCCAGAACUACAGAAAUGUAGUUGACGAGGAGGAGGUUUAUCGGAUUAUCGGAGGAUGCCUCCAAA here?
**A.** The value was under 1e-05 s⁻¹.

Variants of: B1
Test: self-cleavage kobs at 10000 uM GlcN6P; higher = faster cleavage; RNA array
Details: with glucosamine-6-phosphate
How it was run: as §1

**Q.** AUAAACGCGCCAGAACUACAGAAAUGUAGUUGACGAGGAGGAGGUUUAUCGAAUUUUCGGCGGAUGCUUCCAAA was tested. Which “self-cleavage kobs at 10000 uM GlcN6P” value did it give?
**A.** The value was 4.19e-05 ± 6.8e-06 s⁻¹.

**Q.** AUAAAAACGCCAAAAGUACAGAAAUGUAGUUGACGAGGAGGAGGUUUAUCGAAUUUUCGGCGGAUGCCUCCAAA was tested. Which “self-cleavage kobs at 10000 uM GlcN6P” value did it give?
**A.** Its value is under 1e-05 s⁻¹.

**Q.** For AUAAAACCGCCCGUACUACAGAAAUGUAGUUGACGAGGAGGAGGUUUAUCGAAUUUUCGGCGGAUGCCUCCAAA, which “self-cleavage kobs at 10000 uM GlcN6P” value is on record?
**A.** The value was under 1e-05 s⁻¹.
